Test results taken from PubChem BioAssay AID1159614 (National Center for Advancing Translational Sciences (NCATS), 2016).
Hit rate of the full screen: of about 45,000 compounds, about 65 (0.1%) were called active. Calls follow the shape of the dose curve; as a rule, active = well fitted activation curve with a large enough effect; inconclusive = small, poorly fitted or top-dose-only effect; inactive = no such curve, though single readings can be large or run the other way. This is one part of the list.

Target: Galactocerebrosidase (Homo sapiens) (UniProt P54803)
Experiment: A Novel Cell-Based Assay to Identify Small Molecules for B -Galactocerebrosidase; also: 0% is about no effect; nearly all actives have a fitted effect of over 65% in size
Settings: 145M-Twi-hGALC-G270D cells, HMU-beta-Gal fluorescence, 48 h; series mostly up to 57.5 µM; activation: at the top concentration
Method in brief: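 qHTS, 1536-well; 145M-Twi-hGALC-G270D cells (WT line also made) in DMEM/F12 + 10% FBS; compound incubation on live cells; HMU-β-gal 0.1 mM final, pH 5.2, NaTC; carbonate stop; fluorescence increase = enhanced residual activity.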

Chain of UniProt P54803 (P54803 whole entry, looked up): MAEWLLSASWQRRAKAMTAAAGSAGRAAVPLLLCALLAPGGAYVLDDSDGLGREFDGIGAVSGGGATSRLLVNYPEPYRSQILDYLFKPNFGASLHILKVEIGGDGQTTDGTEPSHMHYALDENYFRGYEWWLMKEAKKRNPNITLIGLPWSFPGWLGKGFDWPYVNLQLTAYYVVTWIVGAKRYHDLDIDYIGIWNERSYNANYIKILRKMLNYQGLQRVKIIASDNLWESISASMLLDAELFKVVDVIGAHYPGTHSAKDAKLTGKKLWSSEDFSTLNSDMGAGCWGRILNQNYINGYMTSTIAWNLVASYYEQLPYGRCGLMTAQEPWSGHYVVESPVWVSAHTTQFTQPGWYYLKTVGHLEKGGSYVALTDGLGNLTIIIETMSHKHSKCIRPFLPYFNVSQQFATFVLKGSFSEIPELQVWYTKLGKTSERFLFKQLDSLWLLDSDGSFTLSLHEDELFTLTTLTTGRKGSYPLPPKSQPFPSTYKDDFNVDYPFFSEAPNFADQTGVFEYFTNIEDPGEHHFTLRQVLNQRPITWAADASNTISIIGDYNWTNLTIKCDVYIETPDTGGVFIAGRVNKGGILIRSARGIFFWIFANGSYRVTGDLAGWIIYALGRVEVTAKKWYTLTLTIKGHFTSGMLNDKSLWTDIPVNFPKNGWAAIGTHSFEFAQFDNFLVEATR

activation, inactive:
COc1ccccc1NS(=O)(=O)c1cn(C)c(C)n1 5.49%
Cc1ccc(C)c(N2CCN(C(=O)Cn3nc(C)c4sc5ccccc5c4c3=O)CC2)c1 -10.7%
COc1ccccc1N(CC(=O)Nc1ccccc1C(F)(F)F)S(=O)(=O)c1ccc(C)cc1 -12.4%
COc1ccc(OC)c(NC(=O)C(C)n2c(=O)c(-c3ccccc3NC(C)=O)nc3ccccc32)c1 (configuration not stated) -21.5%
O=C(CC1Sc2ccccc2NC1=O)Nc1cccc(C(F)(F)F)c1 (configuration not stated) -35.1%
COc1ccc(-c2nc(CSCC(=O)NCCC(C)C)c(C)o2)cc1OC -7.05%
CCOc1ccc(NC(=O)CSc2nc3ccsc3c(=O)n2CCC(C)C)cc1 -4.12%
COc1ccc(OC)c(NC(=O)C2CCN(S(=O)(=O)c3ccc4c(c3)CC(C)N4C(C)=O)CC2)c1 (configuration not stated) -14.5%
Cc1ccc(NC(=O)C2CCN(S(=O)(=O)c3ccc4c(c3)CCCC(=O)N4)CC2)cc1N(C)C -16%
Cc1cc(Nc2cccc(Cl)c2)nc2ccc(NC(=O)COc3ccc(Cl)cc3)cc12 -12.8%
COc1ccc(OC)c(CNC(=O)NCc2noc3ccc(C)cc23)c1 -13.4%
O=C(CN1C(=O)c2cccnc2Sc2ccccc21)Nc1cc(F)ccc1F -15.9%
Cc1ccc(-n2nc(C)c3c(C(=O)NCCc4ccc(S(N)(=O)=O)cc4)cc(C)nc32)cc1 -14.2%
CCC1CN(C(=O)N2CCC(C(=O)NCc3cccc(F)c3)CC2)c2cc(C)ccc2O1 (configuration not stated) -19%
CC(C)c1ccc(NC(=O)c2cc3c(=O)[nH]c4ccccc4c3n2C)cc1 -27.5%
O=C(CSc1cn(CC(=O)N2CCCCC2)c2ccccc12)NCc1ccccc1Cl -14.9%
CCN1C(=O)c2ccccc2S(=O)(=O)c2ccc(C(=O)NCc3ccccc3OC)cc21 -11.2%
Cc1ccc(-n2nc(C)c3c(C(F)(F)F)cc(-c4cccnc4)nc32)cc1C -2.14%
Cc1ccc2oc(-c3ccc(NC(=O)c4oc5ccc(Cl)cc5c4C)cc3)nc2c1 1.18%
COc1ccc(NC(=O)Nc2cc(C(=O)NCc3ccc(C)cc3)ccc2N2CCCC2)cc1 -2.13%
CCCCN(C)CCCNC(=O)c1cn(CC)c2ccc(S(=O)(=O)N3CCc4ccccc4C3)cc2c1=O -16.4%
COc1ccccc1CNC(=O)c1cc(S(=O)(=O)N2CCCC(C)C2)cn1C (configuration not stated) 3.26%
CCOc1ccc(-c2cn3nc(CC(C)C)sc3n2)cc1 13.8%
Cc1cccc(NC(=O)Cn2c(SCC(=O)NCc3ccccc3)nc3ccccc32)c1C -5.82%
O=C(c1cnn(-c2ccc(F)cc2)c1-n1cccc1)N1CCN(c2ccccc2)CC1 -18%
COc1ccc(CNC(=O)C2(c3cccs3)CCOCC2)cc1 -12.8%
Cc1ccc(NC(=O)c2ccc(C)c(S(=O)(=O)N3CCCCCC3)c2)cc1 -40.1%
CCOC(=O)c1ccc(N=C2SC(C(=O)Nc3ccccc3)CC(=O)N2C)cc1 (configuration not stated) 4.42%
CCN(CC)c1ccc(C2C(C(N)=O)=C(C)Nc3nc(SCc4ccccc4Cl)nn32)cc1 (configuration not stated) 9.41%
CCc1ccc(CCOc2ccc(CC3SC(=O)NC3=O)cc2)nc1 (configuration not stated) -13.6%
COc1ccc(N2CCN(CC(O)COc3c(OC)cccc3OC)CC2)cc1 (configuration not stated) -38.4%
CCOc1ccc(NC(=O)c2c(NCc3cccs3)sc3c2CCC(C)C3)cc1 (configuration not stated) -9.94%
CCCCc1nn2c(=O)cc(COC(=O)CNC(=O)COc3ccc(C)cc3)nc2s1 -1.39%
Cc1ccccc1-c1nc(CN2CCC(C(=O)NC(C)C)CC2)c(C)o1 -9.47%
CCN(CC)S(=O)(=O)c1cccc(C(=O)Nc2ccccc2C(=O)Nc2ccc(OC)cc2)c1 -10.9%
CCOC(=O)C1=C(CN2CCN(c3ccc(C)cc3C)CC2)NC(=O)NC1c1ccc(OC)cc1 (configuration not stated) -16.6%
COc1ccc(-c2nc3sc(CCNC(=O)C(=O)Nc4ccccc4C#N)c(C)n3n2)cc1 -8.2%
CCOC(=O)c1ccccc1NC(=O)c1c(C)oc2ncnc(N3CCOCC3)c12 6.09%
COc1cccc(-n2c(=O)c3c(C)c(C)sc3n(Cc3ccccc3C#N)c2=O)c1 -14.2%
Cc1cccc(-n2c(SCC(=O)Nc3ccc(C)c(C)c3)nc3n[nH]c(C)c3c2=N)c1 -3.72%
CCOc1ccccc1NC(=O)C1=C(C)Nc2ncnn2C1c1ccco1 (configuration not stated) -20%
COc1cc(NC(=O)c2nn(C)c3c2COc2ccccc2-3)cc(OC)c1OC -6.95%
O=C(CCn1c(=O)c2ccccc2n(CC(=O)Nc2ccc(F)cc2)c1=O)NCCc1ccccc1 -6.05%
CC(C)c1cc(-c2nc(-c3ccc(Cl)cc3)no2)n[nH]1 -20.4%
CCc1cnc2c(c1SC(C(C)=O)C(=O)N(C)C)c(=O)n(C)c(=O)n2C (configuration not stated) -9.67%
COc1ccc(CCNC(=O)c2ccc(Cn3c(SCc4ccccc4)nc4cccnc43)cc2)cc1 -12.8%
COc1cccc(-c2nn(C)c3sc(C(=O)NCc4ccc(OC)cc4OC)cc23)c1 -11%
Cc1ccc(CNC(=O)c2c(Nc3ccccc3C)sc(C(=O)c3ccc(F)cc3)c2N)cc1 -6.59%
COc1ccc(CC(=O)NCC(c2cccs2)S(=O)(=O)c2ccc(F)cc2)cc1 (configuration not stated) -14.3%
Cc1ccc(C(=O)N(Cc2ccco2)c2ccccn2)cc1 -19.6%
O=C(CN1CCN(Cc2ccccc2F)C1=O)NCc1ccccc1 -7.97%
COc1ccccc1NC(=O)c1cnn(-c2ccccc2)c1-n1cccc1 6.08%
CC(C)c1ccc(NC(=O)c2ccc(CN3CC(=O)N4CCCCC4C3=O)cc2)cc1 (configuration not stated) -12.4%
CCc1ccc(C2CC(=O)Nc3c2c(=O)nc2c(C)cccn32)cc1 (configuration not stated) -13.9%
Cc1cccc(NC(=O)Cn2c(=O)n(Cc3ccccc3)c(=O)c3oc4ccccc4c32)c1C -4.23%
CCOc1ccc(C2C(C(N)=O)=C(C)Nc3nc(SCc4ccccc4F)nn32)cc1 (configuration not stated) -19.4%
COc1ccccc1C(=O)Nc1ccc(C(=O)OCc2cc(=O)n3c4c(sc3n2)CCCC4)cc1 -21.3%
CSc1ccc(CCNC(=O)c2csc3c2CCCCC3)cc1 -4.11%
O=C(O)CCn1ccc2cc(S(=O)(=O)N3CCCCCC3)ccc21 -10.7%
Cc1cc(C)c(NC(=O)C(=O)NCCc2csc(-c3ccc(F)cc3)n2)c(C)c1 -38.4%
CN(C)c1ccc(CNC(=O)c2ccc3nc(Cc4ccccc4)oc3c2)cc1 -39.2%
CCCCOc1ccc(C(=O)Nc2cccc(-c3nc4ccccc4o3)c2C)cc1 -14.1%
Cc1nc2nc(NCc3ccc(Br)cc3)[nH]n2c(=O)c1Cc1ccccc1 -19%
Cc1cccn2c(=O)c(C(=O)N3CCN(c4ccccc4)CC3)cnc12 -3.6%
COc1cc(Nc2nc(-c3ccc(OC)c(OC)c3)nc3ccccc23)cc(OC)c1 -11.9%
Cc1ccc(-n2c(=O)c3oc4ccccc4c3n(Cc3cccc(F)c3)c2=O)cc1C 10.1%
Cc1ccc(C(=O)c2c(N)c(C(=O)Nc3cccc(C(F)(F)F)c3)c3ccccn23)cc1 -11.3%
COc1ccccc1Nc1c2c(nc3ccc(NC(=O)c4ccc(N(C)C)cc4)cc13)CCCC2 -15.1%
COc1cccc(C2C(C(N)=O)=C(C)Nc3ncnn32)c1 (configuration not stated) -6.4%
COc1ccc(OC)c(NC(=O)C2=C(C)C(=O)OC23CCN(C(C)C)CC3)c1 -0.549%
Fc1ccc(N2CCN(c3ncnc4onc(-c5ccc(Cl)cc5)c34)CC2)cc1 -10.8%
O=C(CSc1nc2c(oc3ccccc32)c(=O)n1-c1ccccc1)Nc1ccc(F)c(Cl)c1 -11.6%
CCCCC(CC)CNC(=O)CCCCCn1c(=O)[nH]c2ccsc2c1=O (configuration not stated) -12.2%
O=C(c1ccc2c(c1)N(Cc1ccc(Cl)cc1)C(=O)c1ccccc1S2(=O)=O)N1CCOCC1 -8.7%
CC(C)c1ccc(NC(=O)c2ccc(=O)n(Cc3ccccc3)c2)cc1 -34.6%
CCc1ccc(-n2c(=O)c3ccccc3n(Cc3ccccc3C#N)c2=O)cc1 -12.7%
CCOc1ccccc1NC(=O)Cn1c(=O)n(Cc2ccco2)c(=O)c2sc3ccccc3c21 -20.3%
Cc1ccc(N(CC2=NCCN2)c2cccc(O)c2)cc1 -17.1%
CCOC(=O)c1c(NC(C)=O)c2c3c(sc2n1Cc1cc(C)ccc1C)CCCC3 0.0104%
Cc1oc2ncn(CC(C)C)c(=O)c2c1C(=O)NCCCN(C)Cc1ccccc1 -4.32%
O=C(Nc1cccc(C(F)(F)F)c1)C1CCCN(S(=O)(=O)c2cccc3nonc23)C1 (configuration not stated) -2.59%
CCn1c(C)c(C)c2cc(C(=O)NCCc3cc(OC)ccc3OC)ccc21 3.5%
CCOC(=O)Cn1c(=O)oc2cc(S(=O)(=O)Nc3ccccc3F)ccc21 -12.4%
COc1cc(-c2nnc(SCCOc3ccccc3)o2)cc(OC)c1OC -7.35%
CCOC(=O)c1c(SCC(=O)Nc2cccc(C)c2C)nc(=O)[nH]c1C -5.45%
CC(C)(C)c1ccc(C(=O)Nc2nnc3n2CCS3)cc1 -9.63%
Cc1oc2c(C)c3oc(=O)c(CCC(=O)N4CCCCC4)c(C)c3cc2c1C 6.7%
Cc1cc2oc(C(=O)Nc3ccc(S(=O)(=O)N(C)c4ccccc4)cc3)cc(=O)c2cc1C 19.7%
O=C(Cn1cc(S(=O)(=O)Cc2ccccc2Cl)c2ccccc21)Nc1ccc(F)cc1F -14%
Cc1ccc(Cn2c(CO)cnc2SCC(=O)Nc2cccc(F)c2)cc1 -5.92%
COc1ccc(-c2noc(-c3ccc(NCCc4ccccc4)c([N+](=O)[O-])c3)n2)cc1 -14.6%
CC(=O)N1CCc2c(sc(NC(=O)CSc3ccc(F)cc3)c2-c2nc3ccccc3s2)C1 -0.262%
CCOc1ccc(S(=O)(=O)N2CCC(n3c(C)nc4cccnc43)CC2)cc1 -20.8%
O=C(Cn1ncc2c(Cl)cccc21)NCc1cccc(F)c1 -10.1%
COC(=O)c1ccc2c(c1)N(Cc1cc(C)ccc1C)C(=O)c1ccccc1S2(=O)=O -9.21%
CCOc1ccc(CNC(=O)c2ccc3c(c2)N(Cc2ccccc2)CCS3)cc1 -17.1%
Cc1cc(C)c(NC(=O)C2CCCN(C(=O)c3cnn(-c4ccccc4)c3-n3cccc3)C2)c(C)c1 (configuration not stated) -9.38%
